# Measurements published in PubChem BioAssay AID1461 (National Center for Advancing Translational Sciences (NCATS), 2008).
# Hit rate of the full screen: of about 220,000 compounds, about 2,300 (1%) were called active. This list was built around the results that the source calls inconclusive (neither active nor inactive); the mix of calls is not that of the screen. Calls come from the whole dose curve; as a rule, active = well fitted inhibition curve with a large enough effect; inconclusive = small, poorly fitted or top-dose-only effect, or effect the other way; inactive = no such curve, though single readings can be large or run the other way. A potency beside an inconclusive call is a rough fit, not a confirmed value.
# Target: Neuropeptide S receptor (Homo sapiens) (UniProt Q6W5P4)
# Sequence of UniProt Q6W5P4 (Q6W5P4 whole entry, looked up): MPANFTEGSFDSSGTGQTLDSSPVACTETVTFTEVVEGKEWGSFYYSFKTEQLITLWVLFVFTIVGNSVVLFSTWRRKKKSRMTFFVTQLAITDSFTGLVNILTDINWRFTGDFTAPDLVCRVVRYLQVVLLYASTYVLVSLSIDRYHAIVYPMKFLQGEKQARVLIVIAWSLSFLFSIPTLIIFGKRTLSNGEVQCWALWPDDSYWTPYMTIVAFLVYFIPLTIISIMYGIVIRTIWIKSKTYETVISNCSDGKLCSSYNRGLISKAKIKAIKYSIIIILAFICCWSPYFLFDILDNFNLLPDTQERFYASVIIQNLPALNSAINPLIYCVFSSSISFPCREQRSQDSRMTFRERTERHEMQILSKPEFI
# Assay: qHTS Assay for Antagonists of the Neuropeptide S Receptor: cAMP Signal Transduction; note: nearly all actives have a fitted effect of over 50% in size
# Settings: CHO-NPSR cells, cAMP TR-FRET, antagonist mode; activity change, negative = inhibition: at 38.3 µM (top of the series) unless noted
# % is set by controls: 0 for no effect and ±100 for the full control effect; potency is the fitted concentration of half-maximal effect; tags give direction and shape of the fitted curve.
SMILES,"activity change, negative = inhibition",Potency
Cc1ccc(C)c(-n2c(=O)c(C#N)cc3c(=O)n4ccccc4nc32)c1,inactive: -13.4%,
COc1ccc(C(=O)Nc2cccc(-c3nc4ncccc4o3)c2C)cc1OC,,"inconclusive: 25.1 µM [inhibitor, single point]"
COc1ccc(C2=NN(C(N)=S)C(c3ccccc3)C2)cc1 (configuration not stated),inactive: -26.9%,
Cc1cccc(-c2cc(C(=O)N3CCCc4ccccc43)c3ccccc3n2)c1,,"inconclusive: 31.6 µM [inhibitor, single point]"
COc1ccc(NC(=S)NCc2ccco2)c(OC)c1,,"inconclusive: 5.01 µM [inhibitor, single point]"
CCOC(=O)c1cnc(SCc2cccc3ccccc23)nc1N,inactive: -14.7% [at 46.1 µM],
COCCNC(=S)N(CCc1c(C)[nH]c2ccc(Cl)cc12)Cc1cccs1,inactive: -44.4%,
c1ccc2c(c1)OCC(c1csc3ncnc(N4CCCCC4)c13)O2 (configuration not stated),,"inconclusive: 20 µM [inhibitor, single point]"
Cc1cccc(N2C(=O)/C(=C\c3ccc(OC(F)F)cc3)c3ccccc3C2=O)c1,,"inconclusive: 12.6 µM [inhibitor, partial curve]"
COc1ccc2c(CSc3nc4nc(C)cc(C)n4n3)cc(=O)oc2c1,,"inconclusive: 10 µM [inhibitor, partial curve]"
CNC(=S)N/N=C/c1ccco1,,"inconclusive: 25.1 µM [inhibitor, single point]"
COc1nn(-c2nc(-c3ccccc3)cc(C(F)(F)F)n2)cc1[N+](=O)[O-],,"inconclusive: 1.26 µM [activator, partial curve]"
COc1ccc2[nH]c3c(NCCN(C(C)C)C(C)C)ncnc3c2c1,inactive: -7.86% [at 46.1 µM],
Cc1ccc(C(=O)OCC(=O)NCc2cccs2)c(C)c1,inactive: -1.92%,
CC(C)N(C(=O)CN(C#N)c1nc(N(C)C)nc(N(C)C)n1)c1ccccc1,,"inconclusive: 3.98 µM [inhibitor, full curve, poor fit]"
CC1=NN2C(=N)/C(=C\c3cc(C)n(-c4cccc(C)c4)c3C)C(=O)N=C2S1,,active: 12.6 µM
CN1C(=O)/C(=C2\SC(N3CCCCCC3)=NC2=O)c2ccccc21,,"inconclusive: 15.8 µM [inhibitor, single point]"
CS(=O)(=O)c1sc2nc(-c3cccs3)cc(-c3ccccc3)c2c1N,,active: 10 µM
Cc1ccc(C)c(Oc2ncnc(N)c2[N+](=O)[O-])c1,inactive: 23.2%,
O=C(NCCCn1ccnc1)c1cccc(S(=O)(=O)N2CCCCCC2)c1,,"inconclusive: 31.6 µM [inhibitor, single point]"
CCC(C)[C@H](NC(=O)OC(C)(C)C)C(=O)N/N=C/C1=Cc2ccccc2OC1 (some centres not stated),,"inconclusive: 20 µM [inhibitor, single point]"
COc1ccc(Oc2nc(-c3ccccn3)nc3ccccc23)cc1,,"inconclusive: 1.26 µM [activator, full curve, poor fit]"
CC(C)(C)c1nnc2sc(SCC(=O)N3CCCc4ccccc43)nn2c1=O,,"inconclusive: 0.316 µM [inhibitor, partial curve, poor fit]"
CC(C)CCNC(=O)CN(C(=O)Cn1nnc(-c2ccccc2F)n1)c1cccc2c1CCCC2,,"inconclusive: 10 µM [inhibitor, single point]"

SMILES,"activity change, negative = inhibition",Potency
O=C(O)c1ccc(N=C2SCC(=O)N2Cc2ccccc2)cc1,inactive: 7.79%,
COc1ccccc1CC(NC(C)=O)C(=O)NC1CCN(c2nnnn2-c2ccccc2)CC1 (configuration not stated),inactive: -5.93% [at 46.1 µM],
O=C(Oc1ccc2[nH]cc(CCN3C(=O)c4ccccc4C3=O)c2c1)c1ccco1,inactive: -25.5% [at 46.1 µM],
COc1ccc(CNc2nc(-c3cccnc3)nn2C(=O)c2ccco2)cc1,,"inconclusive: 0.631 µM [inhibitor, full curve, poor fit]"
C/C(=N\NC(=O)c1cc(-c2ccccn2)nc2ccccc12)c1cccc([N+](=O)[O-])c1,inactive: 11.3%,
Cc1ccc(CN(c2ccc(C(=O)N3CCc4ccccc4C3)cc2)S(C)(=O)=O)cc1,,"inconclusive: 15.8 µM [inhibitor, single point]"
COc1ccc(C(=O)Cc2nnc(C)s2)c(OC)c1,inactive: 1.61%,
CC(=O)Nc1ccc(N2C(=O)CC(N3CCSCC3)C2=O)cc1 (configuration not stated),inactive: 7.77%,
CCOc1ccc(/C=C2\C(=O)c3ccccc3OC2c2ccccc2)cc1 (configuration not stated),,"inconclusive: 10 µM [inhibitor, partial curve]"
CCc1nnc(NC(=O)CSc2nc(C)cc(C)c2C#N)s1,,"inconclusive: 25.1 µM [inhibitor, single point]"
O=C(c1ccc(COc2ccccc2Cl)o1)N1CCN(c2ccccc2)CC1,inactive: -19.6% [at 46.1 µM],
CCC(=O)OCCNc1cc(Sc2nc3ccccc3s2)c2nonc2c1[N+](=O)[O-],,"inconclusive: 12.6 µM [inhibitor, single point]"
Cc1ccc(-c2ccc(/C=N/c3ncn[nH]3)o2)cc1Cl,,"inconclusive: 25.1 µM [inhibitor, single point]"
COc1ccc2c(Cl)c(C(=O)N/N=C/c3c(C)[nH]c4ccccc34)sc2c1,,"inconclusive: 12.6 µM [inhibitor, single point]"
O=C(CSC1=NC(=O)C(Cc2ccccc2)C(=O)N1)Nc1ncc(Br)cc1Br (configuration not stated),inactive: 18.8%,
CCOc1ccccc1NC(=O)C1Cc2ccccc2CN1S(C)(=O)=O (configuration not stated),,"inconclusive: 12.6 µM [inhibitor, single point]"
CCN(CC)c1ccc(NC(=O)c2ccccc2)cc1S(=O)(=O)Nc1ccccc1OC,inactive: -40.7%,
Cc1ccc(C2(COC(=O)C(C)C)CO2)c(OC(=O)C(C)C)c1 (configuration not stated),,"inconclusive: 25.1 µM [inhibitor, single point]"
CC(C)N=C1NN=C(c2ccc(Cl)c(Cl)c2)CS1,inactive: -12%,
Cc1c(/C=N/Nc2ccc(F)cc2)c(O)n(C)c(=O)c1C#N,inactive: 8.95%,
O=[N+]([O-])c1cc2oc3c(c2c(C=NCc2ccccc2)c1O)CCCC3,,active: 10 µM
CC(C)CC(C)c1cc(N)nc2nc3ccccc3n12 (configuration not stated),,"inconclusive: 10 µM [inhibitor, single point]"
Cc1cccc(-n2cnc3c(sc4nc(N5CCOCC5)c5c(c43)CCCC5)c2=O)c1,,"inconclusive: 5.01 µM [activator, partial curve]"
O=C(O)CCC(NC(=O)C1CCCN1C(=O)OCc1ccccc1)C(=O)O (configuration not stated),inactive: -19%,

SMILES,"activity change, negative = inhibition",Potency
CCOc1ccc(-c2nc(=S)[nH][nH]2)cc1,,"inconclusive: 25.1 µM [inhibitor, single point]"
O=C(c1cc2ccccc2oc1=O)N(Cc1cccs1)Cc1cccs1,,"inconclusive: 0.004 µM [activator, full curve, poor fit]"
CC(=O)OC1c2c(ccc3ccc(=O)oc23)OC(C)(C)C1OC(=O)CC(C)C (configuration not stated),,"inconclusive: 10 µM [inhibitor, single point]"
O=[N+]([O-])c1cc(-c2ccc(/C=N/c3nc4ccccn4c3-c3ccco3)o2)ccc1Cl,,"inconclusive: 7.94 µM [inhibitor, partial curve, poor fit]"
COc1ccc(NC(=O)C2CCN(c3nnnn3-c3ccccc3)CC2)cc1,inactive: -10.7% [at 46.1 µM],
Cc1ccc(C)c(/C=N/NC(=S)NCCc2ccccc2)c1,,"inconclusive: 25.1 µM [inhibitor, single point]"
Cc1cc2cc(CNC(=S)Nc3ccc(OC(F)F)cc3)ccc2n1C,,"inconclusive: 12.6 µM [inhibitor, single point]"
Nc1c(C(=O)Nc2ccc(S(=O)(=O)N3CCCC3)cc2)sc2nc3ccc(OC(F)(F)F)cc3cc12,,"inconclusive: 12.6 µM [inhibitor, single point]"
CCOC(=O)C(c1ccccc1)C(Nc1ccc(F)cc1)c1ccccn1 (configuration not stated),,"inconclusive: 6.31 µM [activator, partial curve]"
COc1ccccc1Cn1c(/C=C/c2ccccc2)nc2ccccc21,,"inconclusive: 12.6 µM [inhibitor, single point]"
O=C(CCCSc1nnc(-c2cccs2)n1CC1CCCO1)c1ccccc1 (configuration not stated),,"inconclusive: 10 µM [inhibitor, single point]"
CCNC(=S)/N=C(/Nc1ccc(OC)cc1)Nc1nc(C)cc(C)n1,inactive: -11.5%,
Cc1ccc(-n2ncc3c(=O)n(Cc4ccccn4)cnc32)cc1C,,"inconclusive: 5.01 µM [inhibitor, single point]"
CC(=O)N(c1ccc2oc(=O)sc2c1)S(=O)(=O)c1ccccc1,,"inconclusive: 31.6 µM [inhibitor, single point]"
COc1ccc2c(c1)-c1c(ssc1=S)C(C)(C)N2C(=O)CSC1=NCCS1,inactive: -23.3% [at 46.1 µM],
C=CCN(CC=C)c1cnn(-c2nc3ccccc3[nH]2)c(=O)c1Cl,inactive: -8.92% [at 46.1 µM],
Cc1ccc(Cl)cc1N1CCN(C(c2cccnc2)c2nnnn2C2CCCCC2)CC1 (configuration not stated),,"inconclusive: 12.6 µM [inhibitor, single point]"
CC(C)(C)NC(=O)C(c1ccncc1)N(Cc1cccs1)C(=O)Cn1nnc(-c2cccs2)n1 (configuration not stated),,"inconclusive: 0.199 µM [inhibitor, full curve, poor fit]"
CCC(C)c1ccccc1NC(=O)COC(=O)c1ccc(C)c(NC(=O)c2ccco2)c1 (configuration not stated),inconclusive: -32.9% [inhibitor] [at 46.1 µM],
O=C(/C=C\c1cccs1)c1c(O)ccc2ccc(=O)oc12,inactive: -24.8%,
COc1cc2c(=O)n(Cc3ccccc3)c(=O)n(CC(=O)NCc3ccco3)c2cc1OC,inactive: -1.67% [at 46.1 µM],
C[n+]1cc[nH]c1SCC(=O)c1ccc(Cl)cc1,inactive: 10.6%,
COc1c(C(CC(C)C)OC(C)=O)ccc2c1C(=O)OCc1cc(C)cc(O)c1O2 (configuration not stated),,"inconclusive: 12.6 µM [inhibitor, single point]"
CCCc1nc2ccccc2c(C(=O)OCC(=O)Nc2ccc(S(=O)(=O)N3CCOCC3)cc2)c1CC,,active: 10 µM
